Columns and labels:
Parameters in all cases: species or system human
[1] = biological target: Matrix-associated proTGFβ1; assay: Octet binding, ECM average of hLTBP1 and hLTBP3 complexes; conditions: average KD of (B) and (C), read-out: (D) ECM AVRG
Text: (§1) Column (A) of the table provides monoclonal antibodies with discrete amino acid sequences. […] Columns (B), (C), (E) and (F) provide affinities of each of the listed antibodies, measured in KD, towards the antigen complex as indicated, respectively. […] Average KD values calculated from (B) and (C) are shown in the corresponding column (D), which collectively represents affinities of the antibodies to ECM- or matrix-associated proTGFβ1 complexes. Similarly, Average KD values calculated from (E) and (F) are shown in the corresponding column (G), which collectively represents affinities of the antibodies to cell-surface or cell-associated proTGF complexes. Finally, relative ratios between the average KD values from columns (D) and (G) are expressed as fold bias” in column (H). Thus, the greater the numerical of column (H) is, the greater bias exists for the particular antibody, when comparing binding preferences of the antibody for matrix-associated complexes to cell-surface complexes. This is one way of quantitatively representing and comparing inherent bias of antibodies to their target complexes. Such analyses may be useful in guiding the selection process for a candidate antibody for particular therapeutic use.

Cell-associated proTGFβ1 = assay: Octet binding, cell average of hGARP and hLRRC33 complexes; conditions: average KD of (E) and (F), read-out: (G) Cell AVRG
Text: as §1

[2] = system: Matrix-associated proTGFβ1 vs Cell-associated proTGFβ1; assay: Octet binding, matrix vs cell bias (G/D); conditions: ratio of cell average KD to ECM average KD
Text: as §1

- Kd [1]: 0.29 nM
B1: Ab10: monoclonal antibody binding proTGFβ1 complexes; VH SEQ ID NO: 216, VL SEQ ID NO: 217 (antibody, V domains shown)
VH: EVQLLESGGGLVQPGGSLRLSCAASGFTFRNYAMSWVRQAPGKGLEWVSSISGSGGATYYADSVKGRFTISRDNSKNTLYLQMNSLRAEDTAVYYCARVSSGHWDFDYWGQGTLVTVSS
VL: DIQMTQSPSSLSASVGDRVTITCQASQDISNSLNWYQQKPGKAPKLLIYDASNLETGVPSRFSGSRSGTDFTFTISSLQPEDIATYYCQQAPNLPFTFGGGTKVEIK
- Kd (Cell-associated proTGFβ1): 5.63 nM
- (H) G/D (fold bias) [2]: 19.38 fold

From patent US20210340238A1, “TGFß1 INHIBITORS AND USE THEREOF” (Scholar Rock, Inc., priority 2018, published 2021)
